PubChem BioAssay (NCI)
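Compound exposure: 48 hours, 5 concentrations, 96-well plates. TGI is the concentration that stops growth completely.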 Some entries of the source have several records that differ or are many. Only these are listed. An entry can have further records. The tests behind the records often covered other concentration ranges, which the source does not state; some values may only mark the edge of a range.

Columns and labels:
Test in all cases: NCI-60 cell line screen, 48 h
OVCAR-5 ovarian = test system: OVCAR-5 ovarian
OVCAR-3 ovarian = test system: OVCAR-3 ovarian
T-47D breast = test system: T-47D breast
HT29 colon = test system: HT29 colon

## CC1OC(OC2CCC3(C=O)C4CCC5(C)C(C6=CC(=O)OC6)CCC5(O)C4CCC3(O)C2)C(O)C(O)C1O (centres undefined)
OVCAR-5 ovarian
  TGI: 0.0781 nM and 27.4 nM
OVCAR-3 ovarian
  TGI: 0.0332 nM and 11.8 nM
T-47D breast
  TGI: 0.141 nM and > 100 µM
HT29 colon
  TGI: 0.0989 nM and 17.9 nM
